From publication PMC4336329 (PLoS ONE, 2015)
The whole screen tested about 310,000 compounds, of which about 14,000 (4.5%) showed an effect of 50% or more. The effect is printed as a negative number. Some of the results follow.

What follows are compounds tested against human ether-à-go-go-related gene (hERG) potassium channel (human, UniProt Q12809) (assay: primary screen, population patch clamp on CHO cells stably expressing hERG).
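Further: peak tail current of the secondary pulse compared with the same well before compound.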

human ether-à-go-go-related gene (hERG) potassium channel, sequence (Q12809 whole entry, looked up): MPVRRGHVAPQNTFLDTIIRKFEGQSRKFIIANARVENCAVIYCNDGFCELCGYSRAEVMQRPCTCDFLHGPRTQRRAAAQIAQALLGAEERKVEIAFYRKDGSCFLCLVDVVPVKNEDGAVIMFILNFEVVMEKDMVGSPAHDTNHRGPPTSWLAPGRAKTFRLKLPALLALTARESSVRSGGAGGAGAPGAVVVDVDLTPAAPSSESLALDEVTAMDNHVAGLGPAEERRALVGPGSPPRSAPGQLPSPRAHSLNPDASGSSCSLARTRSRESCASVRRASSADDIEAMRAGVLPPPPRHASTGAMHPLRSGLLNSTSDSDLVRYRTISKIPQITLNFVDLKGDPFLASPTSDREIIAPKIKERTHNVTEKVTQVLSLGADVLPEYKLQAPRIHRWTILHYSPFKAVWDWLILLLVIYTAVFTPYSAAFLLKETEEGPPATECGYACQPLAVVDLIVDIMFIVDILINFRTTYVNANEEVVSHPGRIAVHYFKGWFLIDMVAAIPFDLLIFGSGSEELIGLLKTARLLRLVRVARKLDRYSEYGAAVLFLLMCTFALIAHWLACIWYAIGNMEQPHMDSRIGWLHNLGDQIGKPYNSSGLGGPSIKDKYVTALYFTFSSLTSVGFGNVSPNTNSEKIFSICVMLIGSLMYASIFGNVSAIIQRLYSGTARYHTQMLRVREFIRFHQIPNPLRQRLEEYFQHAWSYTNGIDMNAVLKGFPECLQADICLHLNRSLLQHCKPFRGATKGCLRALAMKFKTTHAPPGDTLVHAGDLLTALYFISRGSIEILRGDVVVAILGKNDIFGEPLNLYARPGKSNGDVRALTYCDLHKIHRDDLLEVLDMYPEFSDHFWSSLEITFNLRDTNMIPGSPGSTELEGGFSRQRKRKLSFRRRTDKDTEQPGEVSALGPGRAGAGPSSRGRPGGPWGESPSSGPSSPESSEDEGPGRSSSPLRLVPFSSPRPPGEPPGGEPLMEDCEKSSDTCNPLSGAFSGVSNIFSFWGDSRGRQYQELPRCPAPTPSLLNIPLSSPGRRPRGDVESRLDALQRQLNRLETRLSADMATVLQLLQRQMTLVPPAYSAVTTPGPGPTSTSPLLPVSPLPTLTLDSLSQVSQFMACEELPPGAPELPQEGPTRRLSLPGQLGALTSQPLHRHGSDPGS

Question: With `CCCCOC(=O)N1CCOCCOCCN(C(=O)OCCCC)CCOCCOCC1` as the compound, how does the “hERG current change (%, negative = inhibition) at 10uM” value read?
Answer: -23.5%

Question: Which “hERG current change (%, negative = inhibition) at 10uM” value does the source give for `Cc1cccc(C)c1OCC(=O)Nc1cc(Cl)ccc1-n1cncn1` here?
Answer: 2.54%

Question: `COc1ccc(C(=O)c2c(-c3ccc(OC)cc3)oc3ccc(-c4cc(OC)c(OC)c(OC)c4)cc23)cc1` was tested. Which “hERG current change (%, negative = inhibition) at 10uM” value did it give?
Answer: 9.05%

Question: How did the “hERG current change (%, negative = inhibition) at 10uM” value turn out when `CC(=O)NN1C(=O)c2ccccc2NC1c1ccccc1F` (stereo not drawn) was run?
Answer: 12.7%

Question: `O=C(Nc1cc(=O)[nH]c(=O)[nH]1)c1cccc(C(F)(F)F)c1` was tested. Which “hERG current change (%, negative = inhibition) at 10uM” value did it give?
Answer: 10.1%

Question: `COc1cccc(C(=O)NNc2nc(C)cc(C)n2)c1` was tested. Which “hERG current change (%, negative = inhibition) at 10uM” value did it give?
Answer: 14%

Question: For `Cc1n[nH]c(=O)n1-c1ccc(OC(F)(F)F)cc1`, which “hERG current change (%, negative = inhibition) at 10uM” value is on record?
Answer: 16%

Question: How did the “hERG current change (%, negative = inhibition) at 10uM” value turn out when `Cn1cc(C(O)CN2CCCCC2)c2ccccc21` (stereo not drawn) was run?
Answer: 9.26%

Question: Which “hERG current change (%, negative = inhibition) at 10uM” value does the source give for `Cc1ccc(CNS(=O)(=O)NCc2ccc(Cl)cc2)cc1` here?
Answer: 3.34%

Question: For `Clc1ccc(Cn2cc(Br)cn2)cc1Cl`, which “hERG current change (%, negative = inhibition) at 10uM” value is on record?
Answer: 1.51%

Question: For `CCOC(=O)C1CCN(C(=O)Cc2ccccc2OC)CC1`, which “hERG current change (%, negative = inhibition) at 10uM” value is on record?
Answer: 18.2%

Question: For `O=c1c2c3c(sc2nc(NCCO)n1-c1ccccc1)CCCC3`, which “hERG current change (%, negative = inhibition) at 10uM” value is on record?
Answer: 11.7%

Question: How did the “hERG current change (%, negative = inhibition) at 10uM” value turn out when `Cc1ccc(C(=O)N2CCN(Cc3ccc4c(c3)OCO4)CC2)cc1C` was run?
Answer: -14.4%

Question: For `CCSC1=N/C(=C\c2cccc(F)c2)C(=O)S1`, which “hERG current change (%, negative = inhibition) at 10uM” value is on record?
Answer: 10.4%

Question: `CCOC(=O)C1CCCN(S(=O)(=O)c2ccc(-c3cc(C)no3)s2)C1` (stereo not drawn) was tested. Which “hERG current change (%, negative = inhibition) at 10uM” value did it give?
Answer: -26.1%

Question: How did the “hERG current change (%, negative = inhibition) at 10uM” value turn out when `CN(C)CCCOC(=O)c1cc2ccccc2o1.Cl` was run?
Answer: -8.89%

Question: With `O=C(Nc1cc(C(F)(F)F)ccc1N1CCOCC1)c1ccc(Br)o1` as the compound, how does the “hERG current change (%, negative = inhibition) at 10uM” value read?
Answer: 5.27%

Question: For `CCOc1cccc(-n2nnnc2-c2ccc(OC)cc2)c1`, which “hERG current change (%, negative = inhibition) at 10uM” value is on record?
Answer: -17.2%

Question: `CC(C)Cc1nc2n[nH]c(N)c2c2c1COC(C)(C)C2` was tested. Which “hERG current change (%, negative = inhibition) at 10uM” value did it give?
Answer: 2.17%

Question: Which “hERG current change (%, negative = inhibition) at 10uM” value does the source give for `N/C(Cc1ccc([N+](=O)[O-])cc1)=N\OC(=O)c1ccccc1Br` here?
Answer: -57.7%

Question: `Cc1ccc(S(=O)(=O)NCC(C)NS(=O)(=O)c2ccc(C)cc2)cc1` (stereo not drawn) was tested. Which “hERG current change (%, negative = inhibition) at 10uM” value did it give?
Answer: -11.4%

Question: Which “hERG current change (%, negative = inhibition) at 10uM” value does the source give for `Cc1ccc(OCCC(=O)OCC(=O)N2CCN(S(=O)(=O)c3ccc(C)cc3)CC2)cc1` here?
Answer: -24.6%

Question: Which “hERG current change (%, negative = inhibition) at 10uM” value does the source give for `O=C(NCc1ccccc1)c1cc[n+](CC(=O)c2cccs2)cc1.[Br-]` here?
Answer: -30.3%

Question: `Cc1cc(C)n2c(SCC(=O)NC3CCCC(C)C3C)nnc2n1` (stereo not drawn) was tested. Which “hERG current change (%, negative = inhibition) at 10uM” value did it give?
Answer: 9.5%

Question: With `CCCN1C(=O)/C(=C/c2nc3ccccc3c(=O)[nH]2)c2ccccc21` as the compound, how does the “hERG current change (%, negative = inhibition) at 10uM” value read?
Answer: 1.75%

Question: For `COc1ccccc1NC(=O)NCCc1ccccc1`, which “hERG current change (%, negative = inhibition) at 10uM” value is on record?
Answer: 8.91%

Question: Which “hERG current change (%, negative = inhibition) at 10uM” value does the source give for `Cc1ccc(C(=O)N/N=C/c2cccc(OC(=O)/C=C/c3ccco3)c2)cn1` here?
Answer: 11%

Question: With `Cc1ccc(NC(=O)c2ccc(OCc3c(C)noc3C)cc2)cc1` as the compound, how does the “hERG current change (%, negative = inhibition) at 10uM” value read?
Answer: -39%

Question: Which “hERG current change (%, negative = inhibition) at 10uM” value does the source give for `Cc1ccc(-n2c(-c3ccccc3)n[nH]c2=S)c(C)c1` here?
Answer: 7.9%

Question: `Cc1cc(C)nc(NC(=O)C(C)C)n1` was tested. Which “hERG current change (%, negative = inhibition) at 10uM” value did it give?
Answer: -5.03%

Question: `O=C(COC(=O)c1cc2ccccc2oc1=O)c1cccc([N+](=O)[O-])c1` was tested. Which “hERG current change (%, negative = inhibition) at 10uM” value did it give?
Answer: -3.3%

Question: With `Cc1ccccc1OCc1nc2c3c(ncn2n1)-c1ccccc1CC31CCCC1` as the compound, how does the “hERG current change (%, negative = inhibition) at 10uM” value read?
Answer: 14.4%

Question: For `COC(=O)c1ccc(NC(=O)C2CCCN2S(=O)(=O)c2ccc(F)cc2)cc1` (stereo not drawn), which “hERG current change (%, negative = inhibition) at 10uM” value is on record?
Answer: 1.24%

Question: How did the “hERG current change (%, negative = inhibition) at 10uM” value turn out when `CCN(Cc1cnn(C)c1)C(=O)c1ccc2nc(Cc3cccc(Cl)c3)oc2c1` was run?
Answer: -19.8%

Question: How did the “hERG current change (%, negative = inhibition) at 10uM” value turn out when `CS(=O)(=O)Nc1cccc(C(=O)CC2(O)C(=O)Nc3ccccc32)c1` (stereo not drawn) was run?
Answer: 8.15%

Question: `CC(O)(CS(=O)(=O)c1ccccc1)C(=O)Nc1ccc(C(F)(F)F)cc1` (stereo not drawn) was tested. Which “hERG current change (%, negative = inhibition) at 10uM” value did it give?
Answer: -11.3%

Question: How did the “hERG current change (%, negative = inhibition) at 10uM” value turn out when `O=C(Nc1ccc(S(=O)(=O)N2CCOCC2)cc1)C1CC1` was run?
Answer: 12.9%

Question: For `CCC(=O)/C=C1/Sc2ccc(OC)cc2N1CC`, which “hERG current change (%, negative = inhibition) at 10uM” value is on record?
Answer: -4.45%

Question: For `COc1ccnc(N2CCN(c3cccc(C(F)(F)F)c3)CC2)c1C#N`, which “hERG current change (%, negative = inhibition) at 10uM” value is on record?
Answer: 41.6%

Question: With `COc1ccc(OC)c(S(=O)(=O)Nc2ccc(OCC(=O)O)cc2)c1` as the compound, how does the “hERG current change (%, negative = inhibition) at 10uM” value read?
Answer: 23.9%

Question: `CSc1ccccc1NC(=O)c1ccccc1N(Cc1ccccc1)S(C)(=O)=O` was tested. Which “hERG current change (%, negative = inhibition) at 10uM” value did it give?
Answer: -4.52%

Question: `O=C(NCC(=O)N(c1ccccc1)C(C(=O)NCC1CCCO1)c1ccccc1)c1cccs1` (stereo not drawn) was tested. Which “hERG current change (%, negative = inhibition) at 10uM” value did it give?
Answer: 0.228%

Question: With `Cc1ccccc1-n1nnnc1SCC(=O)NNC(=O)c1ccc(NC(=O)CC#N)cc1` as the compound, how does the “hERG current change (%, negative = inhibition) at 10uM” value read?
Answer: 4.31%

Question: For `CCOC(=O)c1nc2ccccc2c(C)c1C.Cl`, which “hERG current change (%, negative = inhibition) at 10uM” value is on record?
Answer: -5.73%

Question: Which “hERG current change (%, negative = inhibition) at 10uM” value does the source give for `CN(C(=O)c1ccccc1C(=O)OCC(=O)Nc1ccc(OC(F)F)cc1)c1ccccc1` here?
Answer: -54%

Question: For `COc1ccc2nc(NC(=O)CSc3nnnn3C3CCCCC3)sc2c1`, which “hERG current change (%, negative = inhibition) at 10uM” value is on record?
Answer: 4.84%

Question: `COc1cccc(-n2nnc3c(=O)n(Cc4cccc(C)c4)cnc32)c1` was tested. Which “hERG current change (%, negative = inhibition) at 10uM” value did it give?
Answer: -10.8%

Question: For `COc1cccc(NC(=O)c2cccc(C(=O)Nc3cccc(OC)c3)c2)c1`, which “hERG current change (%, negative = inhibition) at 10uM” value is on record?
Answer: 16.3%

Question: Which “hERG current change (%, negative = inhibition) at 10uM” value does the source give for `COc1ccc(C(Nc2cccc([N+](=O)[O-])c2)P(=O)(OC(C)C)OC(C)C)cc1` (stereo not drawn) here?
Answer: -31.5%

Question: `O=C(CN1CCN(C(C(=O)Nc2ccc(Cl)cc2C(F)(F)F)c2ccccc2)CC1)NC1CC1` (stereo not drawn) was tested. Which “hERG current change (%, negative = inhibition) at 10uM” value did it give?
Answer: -70.2%

Question: How did the “hERG current change (%, negative = inhibition) at 10uM” value turn out when `CCCCN(C)C(=O)c1nc2ccccn2c1CN1CCC[C@H]1C(=O)OC` was run?
Answer: 18.6%

Question: With `CCOc1ccc(CCNC(=O)C2CCC(=O)N2C2CCCCC2)cc1OCC` (stereo not drawn) as the compound, how does the “hERG current change (%, negative = inhibition) at 10uM” value read?
Answer: -2.41%

Question: With `CCC(C)NC(=O)CN1C(=O)COc2ccc(S(=O)(=O)N3CCOCC3)cc21` (stereo not drawn) as the compound, how does the “hERG current change (%, negative = inhibition) at 10uM” value read?
Answer: 25.8%

Question: `CCOc1ccc(CCNC(=O)CS(=O)Cc2nc(-c3ccc(C)cc3)oc2C)cc1` (stereo not drawn) was tested. Which “hERG current change (%, negative = inhibition) at 10uM” value did it give?
Answer: 3.18%

Question: For `COc1ccccc1NC(=S)NNC(=O)c1nn(C)cc1Cl`, which “hERG current change (%, negative = inhibition) at 10uM” value is on record?
Answer: 9.4%

Question: For `CCOC(=O)c1[nH]c2cc(OC)c(OC)cc2c1NC(=O)CN(C)C1CCCCC1`, which “hERG current change (%, negative = inhibition) at 10uM” value is on record?
Answer: -10.5%

Question: For `O=C(NC1CC1)c1cc(F)c(F)cc1Cl`, which “hERG current change (%, negative = inhibition) at 10uM” value is on record?
Answer: 5.79%
